# Assay results as given in PubChem BioAssay (NCI).
#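 Dose response: 5 concentrations. Exposure: 48 h. Format: 96-well plates. Endpoint: linear interpolation; highest concentration if not reached. GI50 is the concentration that inhibits growth by half. TGI is the concentration that stops growth completely.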
# Tested on: NCI-H322M lung
# Test: growth of human tumour cells (NCI), 48 h
SMILES,GI50 [µM],TGI [µM]
CN(C)S(=O)(=O)c1oc(-c2ccccc2)nc1C#N,43,> 100
CCN(CC)CCOc1ccc(C(=C(C)c2ccc(OC)cc2)c2ccc(OCCN(CC)CC)cc2)cc1,1.79,6.75
Nn1c(=O)n(-c2cccc(C(F)(F)F)c2)c(=O)c2cc(-c3ccc(F)cc3F)ccc21,1.78,9.03
CC(C)(C)c1ccc(C(=O)Nc2sc3c(c2C(N)=O)CCC(O)C3)cc1 (stereo not drawn),6.82,20.7
